The supplement of paper PMC10037445
In all, about 2,900 compounds were measured (“NF-kB SEAP reporter activity, fold change vs agonist alone”: median about 0.99, highest 2% from about 2.6 on). The list shows a part of the results.

What was measured:
RAW-Dual [1] = assay: NF-kB SEAP reporter activity, fold change vs agonist alone; higher = enhanced NF-kB activity; details: cytotoxicity flag (confluency mask): not cytotoxic
How it was run: (§1)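 Library stock was pin-tooled at 50 nL into 384-well plates of RAW-Dual macrophages (50,000 cells/well, DMEM), followed 1 h later by a PRR agonist, and the cells were kept at 37 °C, 5% CO2. Supernatant collected after 20 hours was read for IRF by QuantiLuc luminescence and for NF-κB by QuantiBlue absorbance at 620 nm. Reporter activity is fold change over agonist-alone wells, and a well counted as cytotoxic when its IncuCyte confluency was below 70% of agonist controls in both mask sets.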

RAW-Dual [2] = assay: NF-kB SEAP reporter activity, fold change vs agonist alone; cytotoxicity flag (confluency mask): not cytotoxic; higher = enhanced NF-kB activity
How it was run: as §1

[3] = library stock concentration (final ~1000-fold dilution): 10 mM, agonist: Imiquimod (TLR7) […]
[4] = library stock concentration (final ~1000-fold dilution): 10 mM, agonist: MPLA (TLR4) […]
[5] = agonist: ODN 1826 (TLR9) 0.5 ug/mL
[6] = agonist: Pam2CSK4 (TLR2/6) 0.1 ug/mL
[7] = agonist: Pam3CSK4 (TLR2/1) 0.1 ug/mL
[8] = library stock concentration (final ~1000-fold dilution): 10 mM water, agonist: Imiquimod (TLR7) […]
[9] = library stock concentration (final ~1000-fold dilution): 10 mM water, agonist: MPLA (TLR4) […]

CN1CCCN=C1/C=C/c1cccc(O)c1.O=C(O)c1cc2ccccc2c(Cc2c(O)c(C(=O)O)cc3ccccc23)c1O
NF-kB SEAP reporter activity (RAW-Dual [1]; [3]): 0.944
NF-kB SEAP reporter activity (RAW-Dual [1]; [4]): 1.12

CN1CCCN=C1/C=C/c1cccc(O)c1.O=C(O)c1cc2ccccc2c(Cc2c(O)c(C(=O)O)cc3ccccc23)c1O (library stock concentration (final ~1000-fold dilution): 10 mM)
NF-kB SEAP reporter activity (RAW-Dual [2]; agonist: LPS (TLR4) 0.1 ug/mL): 0.973
NF-kB SEAP reporter activity (RAW-Dual [2]; [5]): 0.993
NF-kB SEAP reporter activity (RAW-Dual [2]; [6]): 1.01
NF-kB SEAP reporter activity (RAW-Dual [2]; [7]): 0.594

CN(C)CCN(Cc1ccccc1)c1ccccn1.Cl
NF-kB SEAP reporter activity (RAW-Dual [1]; [8]): 0.979
NF-kB SEAP reporter activity (RAW-Dual [1]; [9]): 1.09

CN(C)CCN(Cc1ccccc1)c1ccccn1.Cl (library stock concentration (final ~1000-fold dilution): 10 mM water)
NF-kB SEAP reporter activity (RAW-Dual [2]; agonist: LPS (TLR4) 0.1 ug/mL): 0.984
NF-kB SEAP reporter activity (RAW-Dual [2]; [5]): 0.872
NF-kB SEAP reporter activity (RAW-Dual [2]; [6]): 1.09
NF-kB SEAP reporter activity (RAW-Dual [2]; [7]): 1.1

CC1COCCN1c1cc(C2(S(C)(=O)=O)CC2)nc(-c2cccc3[nH]ccc23)n1 (stereo not drawn) (library stock concentration (final ~1000-fold dilution): 10 mM)
NF-kB SEAP reporter activity (RAW-Dual [2]; agonist: LPS (TLR4) 0.1 ug/mL): 1.39
NF-kB SEAP reporter activity (RAW-Dual [2]; [5]): 0.532
NF-kB SEAP reporter activity (RAW-Dual [2]; [6]): 0.749
NF-kB SEAP reporter activity (RAW-Dual [2]; [7]): 0.964

CC1COCCN1c1cc(C2(S(C)(=O)=O)CC2)nc(-c2cccc3[nH]ccc23)n1 (stereo not drawn)
NF-kB SEAP reporter activity (RAW-Dual [1]; [3]): 1.81
NF-kB SEAP reporter activity (RAW-Dual [1]; [4]): 1.65

Brc1c(Br)c(Br)c2[nH]nnc2c1Br
NF-kB SEAP reporter activity (RAW-Dual [1]; [4]): 1.11

Brc1c(Br)c(Br)c2[nH]nnc2c1Br (library stock concentration (final ~1000-fold dilution): 10 mM)
NF-kB SEAP reporter activity (RAW-Dual [2]; agonist: LPS (TLR4) 0.1 ug/mL): 1.19
NF-kB SEAP reporter activity (RAW-Dual [2]; [5]): 0.821
NF-kB SEAP reporter activity (RAW-Dual [2]; [6]): 1.1
NF-kB SEAP reporter activity (RAW-Dual [2]; [7]): 1.02

O=C1[C@H](CC[C@H](O)c2ccc(F)cc2)[C@@H](c2ccc(O)cc2)N1c1ccc(F)cc1 (library stock concentration (final ~1000-fold dilution): 10 mM)
NF-kB SEAP reporter activity (RAW-Dual [2]; agonist: LPS (TLR4) 0.1 ug/mL): 0.814
NF-kB SEAP reporter activity (RAW-Dual [2]; [5]): 0.624
NF-kB SEAP reporter activity (RAW-Dual [2]; [6]): 0.366
NF-kB SEAP reporter activity (RAW-Dual [2]; [7]): 0.463

O=C1[C@H](CC[C@H](O)c2ccc(F)cc2)[C@@H](c2ccc(O)cc2)N1c1ccc(F)cc1
NF-kB SEAP reporter activity (RAW-Dual [1]; [3]): 0.261
NF-kB SEAP reporter activity (RAW-Dual [1]; [4]): 0.893

Cc1cc(-c2ncc(CC(=O)Nc3ccc(-c4cnccn4)cn3)cc2C)ccn1
NF-kB SEAP reporter activity (RAW-Dual [1]; [3]): 1.01
NF-kB SEAP reporter activity (RAW-Dual [1]; [4]): 1.18

Cc1cc(-c2ncc(CC(=O)Nc3ccc(-c4cnccn4)cn3)cc2C)ccn1 (library stock concentration (final ~1000-fold dilution): 10 mM)
NF-kB SEAP reporter activity (RAW-Dual [2]; agonist: LPS (TLR4) 0.1 ug/mL): 1.26
NF-kB SEAP reporter activity (RAW-Dual [2]; [5]): 1
NF-kB SEAP reporter activity (RAW-Dual [2]; [6]): 1.02
NF-kB SEAP reporter activity (RAW-Dual [2]; [7]): 1.14

CN1CCC(NC(=O)c2cc(-c3c(O)cc(O)cc3Oc3ccc([N+](=O)[O-])cc3)on2)CC1 (library stock concentration (final ~1000-fold dilution): 10 mM)
NF-kB SEAP reporter activity (RAW-Dual [2]; agonist: LPS (TLR4) 0.1 ug/mL): 0.235
NF-kB SEAP reporter activity (RAW-Dual [2]; [5]): 0.192
NF-kB SEAP reporter activity (RAW-Dual [2]; [6]): 0.0743
NF-kB SEAP reporter activity (RAW-Dual [2]; [7]): 0.133

CN1CCC(NC(=O)c2cc(-c3c(O)cc(O)cc3Oc3ccc([N+](=O)[O-])cc3)on2)CC1
NF-kB SEAP reporter activity (RAW-Dual [1]; [3]): 0.152
NF-kB SEAP reporter activity (RAW-Dual [1]; [4]): 0.341

CNCCc1ccccn1.Cl.Cl (library stock concentration (final ~1000-fold dilution): 10 mM)
NF-kB SEAP reporter activity (RAW-Dual [2]; agonist: LPS (TLR4) 0.1 ug/mL): 1.24
NF-kB SEAP reporter activity (RAW-Dual [2]; [5]): 1.07
NF-kB SEAP reporter activity (RAW-Dual [2]; [6]): 1.07
NF-kB SEAP reporter activity (RAW-Dual [2]; [7]): 1.03

CNCCc1ccccn1.Cl.Cl
NF-kB SEAP reporter activity (RAW-Dual [1]; [3]): 1.1
NF-kB SEAP reporter activity (RAW-Dual [1]; [4]): 1.02

CC(O)(P(=O)(O)O)P(=O)(O)O (library stock concentration (final ~1000-fold dilution): 10 mM water)
NF-kB SEAP reporter activity (RAW-Dual [2]; agonist: LPS (TLR4) 0.1 ug/mL): 1.13
NF-kB SEAP reporter activity (RAW-Dual [2]; [5]): 1.15
NF-kB SEAP reporter activity (RAW-Dual [2]; [6]): 1.25
NF-kB SEAP reporter activity (RAW-Dual [2]; [7]): 1.33

CC(O)(P(=O)(O)O)P(=O)(O)O
NF-kB SEAP reporter activity (RAW-Dual [1]; [8]): 0.953
NF-kB SEAP reporter activity (RAW-Dual [1]; [9]): 1.04
